Source: ChEMBL document CHEMBL5308541, “MAIP: An Open-Source Tool to Enrich High-Throughput Screening Output and Identify Novel, Druglike Molecules with Antimalarial Activity” (ACS Med Chem Lett, 2023)
Out of some 150,000 compounds screened, about 540 (0.36%) showed an effect of 50% or more. The list shows a part of the results.

test system: Plasmodium falciparum; assay: Primary screen in NF54 nanoGlo assay, in single point, at 2uM, 72h; a lower Z score goes with more inhibition; type: functional, Erythrocyte; details: timepoint 72 hour

Row | SMILES | % Inhibition [%] | Z score
1 | Cc1c(CN[C@H]2CCCN(CCCc3ccccc3)C2)c2ccccc2n1CC(N)=O | 4 | -0.79
2 | CCc1cccc(N[C@@H]2C(=O)NCC23CCOCC3)c1 | -2 | 0.34
3 | N#Cc1nccc(N2CC[C@@](c3nc(-c4ccncc4)no3)(C(F)(F)F)C2)n1 | -16 | 3.45
4 | CN(C)c1nc(NCCN2CCC[C@H](CO)C2)ncc1F | -2 | 0.36
5 | Cc1cccc(Cl)c1CNC(=O)c1ccc(-c2cc(-c3ccccc3)n[nH]2)cc1 | -1 | 0.23
6 | COCCn1cc(CCC(=O)N(C)CC2CCCN3CCCCC23)c2ccccc21 (stereo unspecified) | -8 | 1.39
7 | CN(CCCNc1cc(OC2CCOCC2)ncn1)CC(F)(F)F | -5 | 0.89
8 | CCCCS(=O)(=O)NCc1c(C)noc1C | -3 | 0.53
9 | OCCCNCc1cccc(-c2cccc(-c3cc[nH]n3)c2)c1 | -6 | 1.02
10 | O=C(c1ccc(N2CCC(NCc3cc(-c4ccccc4)on3)CC2)cc1)N1CCOCC1 | -17 | 3.04
11 | CN(C)C1CCN(C(C)(C)CNC2CCN3CCCC3C2)CC1 (stereo unspecified) | 0 | -0.03
12 | COc1ccc(C(=O)NCC2C3CCC4(CN(Cc5ccncc5)CC24)O3)cc1OC (stereo unspecified) | -3 | 0.62
13 | CN1CCC(NC[C@@]2(COc3ccc(C(F)(F)F)cn3)C[C@@H](O)[C@@H](O)C2)CC1 | 6 | -0.95
14 | Cc1c(-c2cc(C(=O)NC3CCC3NC3CCCCCC3)no2)cnn1C (stereo unspecified) | -7 | 1.08
15 | Cc1cc(N2CCN(C3CCCCC3)CC2)n2nc(C(F)(F)F)c(-c3ccccc3Cl)c2n1 | -5 | 0.94
16 | CN1CCC(Nc2ccccc2NC(=O)c2ccnc(N3CCOCC3)n2)CC1 | -8 | 1.83
17 | Cc1nc(NC[C@H]2CCOC3(CCC3)C2)c2cc[nH]c2n1 | -7 | 1.07
18 | COc1nccc(N2CCC(CC(=O)N3CCN(CC(=O)N4CCCC4)CC3)CC2)n1 | -3 | 0.46
19 | N[C@H]1C[C@@H](c2nnc(COc3cccc4c3CCCC4)n2C2CC2)C1 | -2 | 0.48
20 | Cn1cc(CC(=O)N2CCC(Oc3cccc4cccnc34)CC2)c2ccccc21 | -4 | 0.73
21 | O=C(Nc1nccc2ccncc12)[C@H]1CC[C@H](Nc2ncccn2)CC1 | -10 | 1.99
22 | CC1CCN(C2CCC(N[C@H]3CCCNCC3)CC2)CC1 (stereo partly specified) | 8 | -1.37
23 | Cc1cccc2[nH]cc(CCNS(=O)(=O)N(C)[C@@H](C)C3CC3)c12 | -2 | 0.39
24 | COCc1noc(-c2ccc(N(C)CCN3CCCC[C@@H]3C)nc2)n1 | -5 | 1.18
25 | Cc1oc(C(C)(C)C)cc1C(=O)N1CCN(c2cnn(C)c2)C(=O)C1 | 1 | -0.15
26 | Oc1cc(CN2CC(O)C(F)C2)nc2ccc(Cl)cc12 (stereo unspecified) | -6 | 1.13
27 | CN1CCN(CCc2ccc(N[C@H]3CCCN(Cc4ccccc4)C3(C)C)cc2)CC1 | 29 | -5.85

Row | SMILES | % Inhibition [%] | Z score
28 | CN(C(=O)C1CC=CC1)C1(C(N)=O)CCCC1 | 1 | -0.1
29 | Cc1ccc([C@@H](C)CCN2CCC(N3CCN(CCO)CC3)CC2)o1 | 4 | -0.93
30 | c1cncc(OCCCNC2CCC3(CCNCC3)CC2)c1 | -1 | 0.21
31 | COc1ccccc1N1CCC(N2CCC(N3CCC(C(=O)NC4CC4)CC3)CC2)CC1 | -7 | 1.15
32 | C[C@H](O)CNc1nc2ccccc2n1Cc1cccnc1C(F)(F)F | 0 | -0.03
33 | Cc1nc2ccccc2c(O)c1CCC(=O)N1CCC[C@@](O)(CN(C)C)C1 | -1 | 0.13
34 | CCNC(=O)NC(=O)CN(CC)C[C@H](C)C(=O)OC | 1 | -0.3
35 | Cc1n[nH]nc1C(=O)Nc1ccc2[nH]c(-c3cccc(F)c3)nc2c1 | 1 | -0.2
36 | Cc1nc(N2CCC(C(=O)N(C)Cc3cccc4cnccc34)CC2)nc2ccc(C(C)C)cc12 | 4 | -0.77
37 | O=C(N[C@@H](Cn1ccnc1)c1ccccc1)c1cc(-c2ccccc2O)n[nH]1 | 16 | -3.26
38 | Cc1nnc(-c2cccc(C(=O)OCc3cccc4[nH]ccc34)c2)o1 | 0 | -0.01
39 | Cc1nc(N(C)C[C@H]2CCCN(C)C2)c2cc[nH]c2n1 | 2 | -0.4
40 | CN(C[C@H]1CC(=O)N(C2CCCC2)C1)c1nc(N)c2cnn(C)c2n1 | -3 | 0.48
41 | Cc1ccc2c(NCc3cc(F)cc(F)c3)c(-c3nc(C4CC4)no3)cnc2n1 | -6 | 1.16
42 | FC(F)(F)CN1CCCN(CCCN2CCCCC2)CC1 | 0 | -0.08
43 | CCN1CCN(CCN2CC3(CCN(C(=O)[C@H]4CCCN4)CC3)OC2=O)CC1 | 7 | -1.4
44 | CN1CCC(N(C)C2CCCCC2N(C)C(=O)NC2CCCCNC2)CC1 (stereo unspecified) | -1 | 0.13
45 | COCc1cc(Cl)ccc1NC(=O)NCc1c(C(F)(F)F)cnn1C | -7 | 1.02
46 | C1CCN(C2(CNC[C@H]3CCCNC3)CCCC2)CC1 | 5 | -0.94
47 | CS(=O)(=O)C1(Cn2ccnn2)CCCCC1 | 1 | -0.13
48 | O=C1CCCN1CC[C@H]1CCCCN1Cc1nc2ccccc2[nH]1 | -1 | 0.24
49 | Cc1cc(CCNC(=O)c2oc(C(C)C)nc2C)cc(C)c1O | -9 | 1.43
50 | c1cn(Cc2ccc(NC[C@@H]3CCCN3)nc2)cn1 | -14 | 2.72
51 | Cc1[nH]c(=O)sc1S(=O)(=O)N[C@@H](C)c1ccc(F)cc1 | -1 | 0.14
52 | c1cc(NCCN2CCCOCC2)c2sccc2n1 | 15 | -2.28
53 | CC[C@@H](C(=O)N(C)Cc1cccc2ncccc12)N1CCOCC1 | -8 | 1.44
